#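 Growth conditions: 96-well plates. Treatment: test compound, 48 hours, 5 concentrations. Analysis: linear interpolation between bracketing concentrations; unreached endpoints set to highest concentration. GI50 = concentration required for 50% inhibition of growth.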 Activity calls are given as the source filed them. No stated cut-off is given here; in the data, active = GI50 up to about 1.1 µM and inactive = higher.
# System: NCI-H322M
# Assay: NCI-60 cell line screen, 48 h
row,SMILES,GI50
1,C#Cc1cc(-c2nc3ccccc3s2)ccc1N,inactive: 18 µM
2,NC(=O)c1ccc([N+](=O)[O-])cc1,inactive: > 100 µM
3,C/C(=N\NC(=O)c1ccncc1)c1ccc2ccccc2c1O,inactive: 4.16 µM
4,Cc1[nH]c2ccccc2c1/C=C/c1c(C)[nH]c2ccccc12,inactive: > 100 µM
5,CC1C2CC(C(C3C(=O)C4CC3C(C)(C)C4C)C2=O)C1(C)C (configuration not stated),inactive: > 100 µM
6,CCC(O)(c1ccc(OC)cc1)C(c1ccc(OCc2ccccc2)cc1)c1ccc(OCc2ccccc2)cc1 (configuration not stated),inactive: > 100 µM
7,CC1=C/C(O)CC(=O)Cc2nc(co2)C(=O)N2CCC=C2C(=O)OC(C(C)C)C(C)/C=C\C(=O)NC/C=C\1 (configuration not stated),inactive: 28.2 µM
8,CC(=O)N1C(Nc2cnc3ccccc3c2)CCN1c1ccccc1 (configuration not stated),inactive: > 10 µM
9,O=c1[nH]nc(Nc2ccccc2)c2nnn(Cc3ccccc3)c12,inactive: > 100 µM
10,S=C(Nc1ccc2c(c1)oc1ccccc12)c1cccs1,inactive: 47.6 µM
11,C[s+]1c2ccccc2c2ccccc21,inactive: > 100 µM
12,COC(=O)Nc1nc2ccc(S(=O)(=O)SC)cc2[nH]1,inactive: 9.14 µM
13,CC(=O)OCC1OC(n2cnc3nc(Br)[nH]c(=O)c32)C(OC(C)=O)C1OC(C)=O (configuration not stated),inactive: > 100 µM
14,COc1cccc2c1OC1c3ccccc3OCC1(O)C2 (configuration not stated),inactive: > 100 µM
15,CCN1C2=NCCN2S(=O)(=O)c2ccccc21,inactive: > 100 µM
16,CC1=CC(C)(c2c[nH]c3ccccc23)CC(C)(C)c2c1[nH]c1ccccc21 (configuration not stated),inactive: 19.1 µM
17,CN(C(=O)c1ccco1)C(=S)N1CCN(c2ccccn2)CC1,inactive: > 100 µM
18,Cn1cc(-c2cnc(-c3cn(C)c4ccccc34)cn2)c2ccccc21,active: 0.804 µM
19,N=c1n(C(=O)N2CCCC2)c2cc(Cl)ccc2n1C1=NCCN1,inactive: > 100 µM
20,CC1=C(C(=O)CC(=O)C(=O)Nc2ccc(Cl)cc2C)Sc2ccccc2N1,inactive: > 100 µM
21,O=C1Nc2ccccc2Nc2nc3cccccc-3c21,inactive: > 100 µM
22,CCOP(=O)(OCC)C(C#N)Cc1ccco1 (configuration not stated),inactive: > 10 µM
23,CCOC(=O)C1=C(C)N(c2ccc(OC)cc2)C2(O)C=CC(O)=C3C(=O)c4ccccc4C(=O)C312 (configuration not stated),inactive: 17 µM

row,SMILES,GI50
1,C=CCCON(C(=O)OC(C)(C)C)c1ccccc1,inactive: 52.2 µM
2,O=C1C=CC(=O)c2c1cc([N+](=O)[O-])c1ccoc21,inactive: 22.9 µM
3,O=C1c2cccc(NCCNCCO)c2C(=O)c2cccc(NCCNCCO)c21,active: 0.459 µM
4,COc1cc(/C=C2\C[C@H]3[C@@H]4CC=C5C[C@@H](O)CC[C@]5(C)[C@H]4CC[C@]3(C)[C@H]2O)cc(OC)c1OC,inactive: 25.6 µM
5,NC(=S)NS(=O)(=O)c1ccc(Cl)cc1,inactive: > 100 µM
6,Cc1ccc(C(=O)N/N=C2/C(=O)c3c4ccccc4cc4cccc2c34)cc1,inactive: > 73.5 µM
7,O=c1c2ccccc2sc2cccc(NCCCN3CCN(CCCNc4cccc5sc6ccccc6c(=O)c45)CC3)c12,inactive: > 100 µM
8,COC(=O)/C=C1/N=C(N(C)/N=C/c2ccccc2)NC1=O,inactive: > 100 µM
9,COC(=O)C1(c2ccc(N(C)C)cc2OC)CCCN(C(=O)Oc2ccccc2[N+](=O)[O-])CCc2c1[nH]c1ccccc21 (configuration not stated),inactive: > 100 µM
10,O=S(=O)(c1ccccc1)n1cnc(CCc2ccccc2)n1,inactive: > 100 µM
11,CNc1cc(Cl)ccc1C(=O)N1CCC[C@H]1CO,inactive: > 100 µM
12,Cc1cccc(/N=C/c2ccc(N(CCC#N)S(=O)(=O)c3ccccc3)cc2C)c1,inactive: > 100 µM
13,CC(C)CCc1n[nH]c(=O)n1/N=C\c1ccccc1,inactive: > 100 µM
14,CCN(CC)Cc1c(/C=C\c2cc(OC)c(OC)c(OC)c2)ccc(OC)c1O,inactive: 4.61 µM
15,O=[N+]([O-])c1ccc(CSc2c3ccccc3nc3ccccc23)cc1,inactive: 8.47 µM
16,CCCC[C@H]1C(=O)O[C@H](C)[C@H](NC(=O)c2cccc(NC=O)c2OC)C(=O)O[C@@H](C)[C@@H]1OC(=O)C(C)CC.CCCC[C@H]1C(=O)O[C@H](C)[C@H](NC(=O)c2cccc(NC=O)c2OC)C(=O)O[C@@H](C)[C@@H]1OC(=O)CC(C)C (some centres not stated),inactive: 16.6 µM
17,O=C1CCCC2=C1CC1=C(CCCC1=O)N2c1cccc([N+](=O)[O-])c1,inactive: > 100 µM
18,O=C(O)c1cccc(NC(C(=O)c2ccccc2)c2ccccc2)c1 (configuration not stated),inactive: > 100 µM
19,CC(=O)C(=[N+]=[N-])C(=O)N1CCOC1=O,inactive: > 10 µM
20,Clc1nc(Cl)c(Cl)c(Cl)n1,inactive: 17.1 µM
21,c1cc2nnc1SCCCSc1ccc(nn1)SCCCSc1ccc(nn1)SCCCS2,inactive: > 100 µM
22,COCOc1cc(OC)c(Br)cc1C/C(=N/O)C(=O)OC,inactive: > 100 µM
23,Nc1ccc2c(c1)N(C(=O)CCCC(=O)N1CC(CCl)c3ccc(N)cc31)CC2CCl (configuration not stated),inactive: 1.9 µM

row,SMILES,GI50
1,NC12CC3CC(C1)CC(Cl)(C3)C2,inactive: > 100 µM
2,O=C(SC1=NCCN1)c1cccc2ccccc12,inactive: > 100 µM
3,CCOC(=O)CCC1(C(=O)OCC)CCCCC1=O (configuration not stated),inactive: > 100 µM
4,Cc1ccc(/C=C/C(=O)c2c([O-])on[n+]2-c2ccccc2)cc1,inactive: 4.36 µM
5,CC1C2CCC3C(O)C2(CC(O)C2(O)C1CC(O)C2(C)C)CC3(C)O (configuration not stated),inactive: > 100 µM
6,CC(O)C1CC1(CO)CNc1cc(Cl)nc(N)n1 (configuration not stated),inactive: > 100 µM
7,O=c1[nH]c(=O)n(CCOc2ccc(Cl)cc2)cc1Nc1ccccc1,inactive: > 100 µM
8,O=C1O/C(=C(/c2ccc(Cl)cc2)c2nc3ccccc3[nH]2)C(O)=C1c1ccc(Cl)cc1,inactive: 3.16 µM
9,CC(=O)NC(CCCNC(=O)OCc1ccccc1)C(=O)O (configuration not stated),inactive: > 100 µM
10,O=c1[nH]c2c(c(=O)[nH]1)SSC2,inactive: 15.5 µM
11,Cc1cc([N+](=O)[O-])ccc1Nc1cccc(Cl)c1C,inactive: 16 µM
12,[O-][N+]1=C2CCC/C(=N/O)C2(O)C2CCCCC21N1CCOCC1 (configuration not stated),inactive: > 100 µM
13,CCCCn1cnnc1NS(=O)(=O)c1cc(C)c(Cl)cc1SCC(=O)O,inactive: > 10 µM
14,C/C(=N/Nc1ccc([N+](=O)[O-])cc1[N+](=O)[O-])C(CC(C(=O)Nc1ccccc1C)/C(C)=N\Nc1ccc([N+](=O)[O-])cc1[N+](=O)[O-])C(=O)Nc1ccccc1C (configuration not stated),inactive: 14.8 µM
15,CCC(Sc1cc(Cl)c(C)cc1S(=O)(=O)Nc1nc(N)nc(N(C)C)n1)C(=O)O (configuration not stated),inactive: > 10 µM
16,CN(C)CCNC(=O)c1cccc2c(=O)c3ccccc3oc12,inactive: 27.5 µM
17,Cc1ccc(S(=O)(=O)NCC2CCCCC2=O)cc1 (configuration not stated),inactive: > 100 µM
18,CCOC(=O)c1ccc(Nc2cnc3ccc(C(F)(F)F)cc3n2)cc1,inactive: 18.1 µM
19,COc1ccc(C2S/C(=C\c3ccc(O)cc3)C(=O)N2NC(=O)Cc2ccccc2)cc1 (configuration not stated),inactive: > 100 µM
20,O=C1NC(SSC2=NNC3(C(=O)N2)c2ccccc2-c2ccccc23)=NNC12c1ccccc1-c1ccccc12,inactive: > 10 µM
21,C(/Cc1ccc2c(c1)OCO2)=N\N=C1NCCCCN1,inactive: > 100 µM
22,Cc1c(Cc2ccccc2)n(C(C)OCCN(OC(=O)Oc2ccccc2)C(=O)Oc2ccccc2)c(=O)[nH]c1=O (configuration not stated),inactive: 23.4 µM
23,Cc1c(N2CCN(C)CC2)nc2ccc(Cl)cc2c1-c1ccccc1,inactive: 14 µM

row,SMILES,GI50
1,N=C(N)NS(=O)(=O)c1ccc(/N=N/c2c(O)c(C(=O)O)cc3ccccc23)cc1,inactive: > 100 µM
2,O=c1c2ccccc2c(=O)c2c1cc(Cl)c1[nH]c3c([nH]c12)c(Cl)cc1c(=O)c2ccccc2c(=O)c13,inactive: > 100 µM
3,COc1cccc2c1OCC1Cc3ccccc3OC21 (configuration not stated),inactive: 71.9 µM
4,Cn1c(=O)cc(NCc2ccc(Cl)cc2)[nH]c1=O,inactive: > 100 µM
5,CCOC(=O)CC(N1CC1)N1CC1,inactive: > 10 µM
6,O=C(O)c1ccccc1/C=C1\Cc2ccccc2C1=O,inactive: > 100 µM
7,COc1cc(S(=O)(=O)Nc2ccc(-c3csc(N4C(=O)C(C)SC4c4cccs4)n3)cc2)ccc1Cl (configuration not stated),inactive: > 100 µM
8,Nc1cc2nc(O)c(O)nc2cc1N,inactive: > 100 µM
9,O=S(=O)(O)C1CCC(O)C2NCCCC21 (configuration not stated),inactive: > 100 µM
10,CCC[C@H](C)[C@H]1NC(=O)[C@@H](NC(=O)[C@@H](CC(C)C)N(C)C(=O)C2CCCN2C(=O)[C@H](C)O)[C@@H](C)OC(=O)[C@H](CC(C)C)N(C)C(=O)[C@@H]2CCCN2C(=O)[C@H](CC(C)C)NC(=O)[C@@H](C)C(=O)[C@H](C(C)C)OC(=O)C[C@@H]1O (some centres not stated),active: < 0.0025 µM
11,Cc1ccc(S(=O)(=O)N/N=C2/CCC3(O)CC2(C)CCC2[C@H]3CC2(C)C)cc1 (some centres not stated),inactive: 53.8 µM
12,FC(F)(F)c1ccc2c(c1)nc(Cc1ccc(Cl)cc1)n2CC1CCCN2CCCCC12 (configuration not stated),inactive: 12.4 µM
13,CC(=O)OC1CC[C@]2(C)C3CC[C@@]4(C)C(CCC4[C@H](C)CCCC(C)C)[C@@H]3CCC2(Br)C1 (some centres not stated),inactive: 42.7 µM
14,C/C1=C\[C@@H](C)C[C@@H](C)OC(=O)[C@@H](C)NC(=O)[C@H](Cc2ccc(O)c(Br)c2)N(C)C(=O)CNC(=O)[C@H](C)C1,inactive: 1.14 µM
15,C=C1CC[C@@H]2C(C)(C)C(O)CCC2(C)C1COc1ccc2ccc(=O)oc2c1 (some centres not stated),inactive: 17 µM
16,CC(=O)C1C(=O)C(=O)N(c2ccc(Cl)c(Cl)c2)C1=O (configuration not stated),inactive: > 100 µM
17,O=C1/C(=C/c2cccc([N+](=O)[O-])c2)CCCc2ccccc21,inactive: 17.2 µM
18,COC1OCC(O)C(NC(=O)N(C)N=O)C1O (configuration not stated),inactive: > 100 µM
19,CCCCCCCCCCCC[N+]12CC[N+](CCN)(CC1)CC2,inactive: 46.1 µM
20,CCOC(=O)CSC(=O)NCCCl,inactive: > 100 µM
21,O=C(Nn1c(-c2cccs2)nc2ccc(I)cc2c1=O)c1ccccc1,inactive: 27.2 µM
22,C=C1C(=O)O[C@@H]2[C@H]1CCC(C)=C1C=CC(=O)[C@]12C,inactive: 20.7 µM
23,Cc1c2ccncc2c(C)c2c1[nH]c1ccc(Oc3ccccc3)cc12,inactive: 7.41 µM
